Hit rate of the full screen: of about 270,000 compounds, about 620 (0.23%) were called active. Inconclusive means that the source gave no clear call. Such entries were picked first, then a sample of the others. Calls come from the whole dose curve; as a rule, active = well fitted inhibition curve with a large enough effect in the polarisation, with a control signal flat (not every such curve was filed as active); inconclusive = small, poorly fitted or top-dose-only effect, or effect the other way, or a change in a side signal; inactive = no such curve, though single readings can be large or run the other way; the % refers to the polarisation. Potencies of inconclusive entries are doubtful fits and often do not repeat. “Side channel” marks fits to a control or component signal instead of the main read-out.
biological target: Menin (Homo sapiens) (UniProt O00255); test: qHTS Assay for Inhibitors Targeting the Menin-MLL Interaction in MLL Related Leukemias: Competition With Texas Red Labeled MLL-derived Mutant Peptide; conditions: fluorescence polarization; FP activity change, negative = inhibition: at 61.6 µM (top of the series); for FP activity change, negative = inhibition: % of control where 0% means no effect
UniProt O00255, sequence (O00255 whole entry, looked up): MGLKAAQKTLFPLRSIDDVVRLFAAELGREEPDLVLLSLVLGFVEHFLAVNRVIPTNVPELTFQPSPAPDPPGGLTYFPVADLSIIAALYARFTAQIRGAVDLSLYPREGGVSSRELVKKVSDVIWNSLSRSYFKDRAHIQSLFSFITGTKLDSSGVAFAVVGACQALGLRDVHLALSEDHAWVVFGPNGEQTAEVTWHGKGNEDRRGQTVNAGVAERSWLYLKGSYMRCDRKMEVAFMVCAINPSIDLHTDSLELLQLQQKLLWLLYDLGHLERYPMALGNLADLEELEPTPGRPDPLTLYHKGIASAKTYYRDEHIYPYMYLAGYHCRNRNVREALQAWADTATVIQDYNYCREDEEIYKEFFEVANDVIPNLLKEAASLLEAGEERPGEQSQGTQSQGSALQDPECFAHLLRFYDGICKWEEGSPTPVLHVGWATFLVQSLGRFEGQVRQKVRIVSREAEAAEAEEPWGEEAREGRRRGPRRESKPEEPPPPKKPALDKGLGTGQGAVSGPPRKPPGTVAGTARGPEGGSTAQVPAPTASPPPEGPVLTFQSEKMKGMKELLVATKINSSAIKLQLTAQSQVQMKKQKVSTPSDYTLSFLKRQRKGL
Potency is the fitted concentration of half-maximal effect; tags give direction and shape of the fitted curve or compound fluorescence and quenching.

Potency, inconclusive:
COc1ccc(Cl)cc1NC(=O)CSc1nc2sccc2c(=O)[nH]1 28.2 µM [quencher, side channel, single point]
Cc1cc(=O)n2c(C(=O)Nc3ccc(C)c(C)c3)c(C(=O)Nc3ccccc3)sc2n1 10 µM [fluorescent, side channel, partial curve]
COc1ccc(NC(=O)c2cc3ccccc3cc2O)cc1 12.6 µM [quencher, side channel, partial curve]
COc1ccc(C(=O)NNC2=Nc3cccc4cccc2c34)cc1 28.2 µM [quencher, side channel, partial curve]
COc1cccc(CN(C)CC(O)COc2cc(Cl)ccc2Cl)c1 (stereo unspecified) 39.8 µM [inhibitor, single point]
COc1ccc2nc(NC(=O)c3ccc(F)cc3)sc2c1 39.8 µM [inhibitor, single point]
COc1cc(OC)c2c(=O)cc(-c3ccccc3)oc2c1 22.4 µM [fluorescent, side channel, partial curve]
O=C(O)c1cc2ccc3ccccc3c2[nH]1 28.2 µM [quencher, side channel, partial curve]
CC1CN(CC(=O)NN=C(c2ccccc2)c2ccccc2)CC(C)O1 (stereo unspecified) 31.6 µM [fluorescent, side channel, single point]
COc1ccc(S(=O)(=O)NCCSCc2ccco2)cc1OC 39.8 µM [quencher, side channel, single point]
COc1ccc(N2CCN(CC(=O)N3c4ccccc4CC3C)CC2)cc1 (stereo unspecified) 39.8 µM [fluorescent, side channel, single point]
CCn1c(CC(=O)Nc2ccccc2F)nnc1SCC(=O)Nc1nnc(C)s1 35.5 µM [quencher, side channel, single point]
CCOC(=O)c1cnc(-n2nc(C)cc2C)nc1NCCc1ccccc1 3.98 µM [fluorescent, side channel, partial curve]
S=C(NCCC(c1ccccc1)c1ccccc1)Nc1ccc(Cl)cc1 10 µM [inhibitor, partial curve]

FP activity change, negative = inhibition, inactive:
CCC(=Nc1ccccc1OC)C1=C(O)CC(c2ccccc2)CC1=O (stereo unspecified) -10.6%
CN(C)C1C(=O)C(C(N)=O)=C(O)[C@@]2(O)C(=O)C3=C(O)c4c(O)ccc(Cl)c4[C@@H](O)C3C[C@@H]12 (stereo partly specified) 8.71%

Reference: PubChem BioAssay AID1768 (National Center for Advancing Translational Sciences (NCATS), 2009)
